Antibody binding signal data for 39 sequences are collected here from the supplement of paper PMC10441789.

Some of the results follow. Antibody binding of pooled human sera (four to six donors per pool; dilution not stated) to peptides of the Trypanosoma cruzi antigen TSSA on microarrays. Quantile-normalised fluorescence in arbitrary units, mean of duplicate arrays; higher = more binding. No active / inactive call. The uninfected pools are read here as the healthy donors of the same country. The strongest signals lie near the top of the scale (about 60,000).

The test system of the first assay is pooled sera of chronic Chagas disease patients, Mexico. The experiment in a line: antibody binding signal (normalised fluorescence) (arbitrary fluorescence units); higher = stronger serum antibody binding to peptide. The procedure:
(§1)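 Microarray of 15-residue peptides over residues 30-55 of Trypanosoma cruzi TSSAII, each with 1 to 10 substitutions at naturally variable positions, probed with one serum pool per country.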
TDKKTAAGGAPSQPG had an antibody binding signal of 496.

Sequence DKKAATGETPSQPGA displayed an antibody binding signal of 312.

For the sequence GTDNKAAAGGTPSPS, the antibody binding signal amounted to 308.

Sequence GKDNKTAAGETPSPP gave an antibody binding signal of 2360.

As to SGTENKPAAGEAPSQ, the antibody binding signal was determined as 925.

The sequence SGTDNKTAAGGTPSP gave an antibody binding signal of 355.

Consider PPSGKEKKTAAGGTP, for which the antibody binding signal is 3630.

In the case of SGTEKKTATGETPSQ, the antibody binding signal came out at 310.

TENKTAAGEAPSPSG displayed an antibody binding signal of 251.

KTATGEAPSQPGASS registered an antibody binding signal of 633.

In the case of PSGKEKKAAAGEAPS, the antibody binding signal was 12500.

In turn, SGTENKTATGEAPSQ returned an antibody binding signal of 180.

Turning to GTDKKTAAGETPSPP, the antibody binding signal was 531.

In turn, KDKKAATGGAPSQSG yielded an antibody binding signal of 1610.

Sequence GKDNKTATGGTPSPP had an antibody binding signal of 3140.

Take DNKAAAGETPSQSGA: the antibody binding signal was found to be 136.

For the sequence GTEKKPAAGGAPSPP, the antibody binding signal was 892.

Consider ENKTATGGAPSQSGA, for which the antibody binding signal turned out to be 546.

PSGKENKPATGGTPS returned an antibody binding signal of 10200.

Consider PPSGTENKAATGGTP, for which the antibody binding signal was determined as 3240.

EKKPATGGAPSPSGA returned an antibody binding signal of 1120.

In the case of PSGTEKKPAAGETPS, the antibody binding signal is 6590.

Consider KEKKPATGGAPSQPG, for which the antibody binding signal worked out at 320.

Sequence GKEKKPAAGETPSPS yielded an antibody binding signal of 7720.

Turning to KDKKAATGETPSQSG, the antibody binding signal is 212.

In the case of GTDNKPAAGGTPSQS, the antibody binding signal was found to be 368.

NKPAAGEAPSQPGAS had an antibody binding signal of 217.

KENKTATGGTPSPPG: the antibody binding signal is 273.

For the sequence PSGTEKKTATGETPS, the antibody binding signal was 959.

GKENKTATGEAPSPP displayed an antibody binding signal of 4810.

Sequence GKDNKTATGETPSQS gave an antibody binding signal of 6450.

For the sequence EKKPATGGTPSPSGA, the antibody binding signal was 765.

ENKAAAGGTPSQPGA had an antibody binding signal of 308.

As to GKDKKAAAGETPSQS, the antibody binding signal worked out at 1250.

On to GKENKPATGETPSQP, for which the antibody binding signal came to 13200.

As for SGKDKKTAAGETPSQ, the antibody binding signal is 823.

As for TENKTAAGGTPSQSG, the antibody binding signal was found to be 497.

GKDKKPAAGEAPSQS registered an antibody binding signal of 1130.

For the sequence GTDKKAATGGTPSQP, the antibody binding signal turned out to be 703.

The next assay concerns pooled sera of chronic Chagas disease patients, USA. The description is as above. The method, then:
as §1
On to TDKKTAAGGAPSQPG, for which the antibody binding signal was found to be 467.

Take DKKAATGETPSQPGA: the antibody binding signal stood at 10800.

Sequence GTDNKAAAGGTPSPS showed an antibody binding signal of 1130.

As to GKDNKTAAGETPSPP, the antibody binding signal was determined as 2650.

In the case of SGTENKPAAGEAPSQ, the antibody binding signal turned out to be 18400.

Sequence SGTDNKTAAGGTPSP gave an antibody binding signal of 1480.

PPSGKEKKTAAGGTP showed an antibody binding signal of 3340.

For SGTEKKTATGETPSQ, the antibody binding signal was found to be 6890.

The sequence TENKTAAGEAPSPSG showed an antibody binding signal of 8000.

KTATGEAPSQPGASS showed an antibody binding signal of 21200.

On to PSGKEKKAAAGEAPS, for which the antibody binding signal stood at 12300.

Take SGTENKTATGEAPSQ: the antibody binding signal was found to be 21600.

In turn, GTDKKTAAGETPSPP registered an antibody binding signal of 2890.

The sequence KDKKAATGGAPSQSG returned an antibody binding signal of 312.

Sequence GKDNKTATGGTPSPP showed an antibody binding signal of 2740.

As to DNKAAAGETPSQSGA, the antibody binding signal amounted to 286.

On to GTEKKPAAGGAPSPP, for which the antibody binding signal was 1550.

Turning to ENKTATGGAPSQSGA, the antibody binding signal stood at 979.

Turning to PSGKENKPATGGTPS, the antibody binding signal was found to be 8900.

In turn, PPSGTENKAATGGTP gave an antibody binding signal of 13400.

Sequence EKKPATGGAPSPSGA came in with an antibody binding signal of 1800.

For PSGTEKKPAAGETPS, the antibody binding signal amounted to 6900.

On to KEKKPATGGAPSQPG, for which the antibody binding signal was 784.

GKEKKPAAGETPSPS displayed an antibody binding signal of 5190.

Sequence KDKKAATGETPSQSG returned an antibody binding signal of 6840.

Sequence GTDNKPAAGGTPSQS yielded an antibody binding signal of 297.

Sequence NKPAAGEAPSQPGAS came in with an antibody binding signal of 15700.

Sequence KENKTATGGTPSPPG came in with an antibody binding signal of 488.

Consider PSGTEKKTATGETPS, for which the antibody binding signal came to 8420.

GKENKTATGEAPSPP yielded an antibody binding signal of 25800.

Consider GKDNKTATGETPSQS, for which the antibody binding signal is 8970.

For EKKPATGGTPSPSGA, the antibody binding signal came to 850.

ENKAAAGGTPSQPGA registered an antibody binding signal of 2340.

Regarding GKDKKAAAGETPSQS, the antibody binding signal turned out to be 1450.

Sequence GKENKPATGETPSQP registered an antibody binding signal of 29700.

SGKDKKTAAGETPSQ yielded an antibody binding signal of 1470.

Turning to TENKTAAGGTPSQSG, the antibody binding signal was determined as 1480.

GKDKKPAAGEAPSQS yielded an antibody binding signal of 11100.

The sequence GTDKKAATGGTPSQP registered an antibody binding signal of 854.
